# Experimental data reported in the supplement of paper PMC8728848.
# The other results are listed elsewhere or left out.
# B1: MPA (Maclura pomifera), P18674 (protein)
# chain: GVTFDDGAYTGIREINFEYNSETAIGGLRVTYDLNGMPFVAEDHKSFITGFKPVKISLEFPSEYIVEVSGYVGKVEGYTVIRSLTFKTNKQTYGPYGVTNGTPFSLPIENGLIVGFKGSIGYWLDYFSIYLSL
# Tests used:
# Experiment in all cases: glycan array binding signal (z-score within array); higher = stronger binding
# Settings in all cases: glycan notation: IUPAC condensed, linker removed
# [1] = biological target: Fuc(a1-2)Gal
# Outline: (§1)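 The Consortium for Functional Glycomics database supplied 3228 glycan arrays, of which those lacking an available protein sequence were dropped. The binding signal, a within-array Z-score, was averaged across arrays of the same protein sequence and across linkers. Negative scores can be read as non-binding.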
# [2] = biological target: Fuc(a1-2)Gal(b1-3)GalNAc
# Outline: as §1
# [3] = biological target: Fuc(a1-2)Gal(b1-3)GalNAc(a1-3)[Fuc(a1-2)]Gal(b1-4)Glc
# Outline: as §1
# [4] = biological target: Fuc(a1-2)Gal(b1-3)GalNAc(a1-3)[Fuc(a1-2)]Gal(b1-4)GlcNAc
# Outline: as §1
# [5] = biological target: Fuc(a1-2)Gal(b1-3)GalNAc(b1-3)Gal
# Outline: as §1
# [6] = biological target: Fuc(a1-2)Gal(b1-3)GalNAc(b1-3)Gal(a1-4)Gal(b1-4)Glc
# Outline: as §1
# [7] = biological target: Fuc(a1-2)Gal(b1-3)GalNAc(b1-4)[Neu5Ac(a2-3)]Gal(b1-4)Glc
# Outline: as §1
# [8] = biological target: Fuc(a1-2)Gal(b1-3)GlcNAc
# Outline: as §1
# [9] = biological target: Fuc(a1-2)Gal(b1-3)GlcNAc(b1-2)Man(a1-3)[Fuc(a1-2)Gal(b1-3)GlcNAc(b1-2)Man(a1-6)]Man(b1-4)GlcNAc(b1-4)GlcNAc
# Outline: as §1
# [10] = biological target: Fuc(a1-2)Gal(b1-3)GlcNAc(b1-2)Man(a1-3)[Fuc(a1-2)Gal(b1-3)GlcNAc(b1-2)Man(a1-6)]Man(b1-4)GlcNAc(b1-4)[Fuc(a1-6)]GlcNAc
# Outline: as §1
# [11] = biological target: Fuc(a1-2)Gal(b1-3)GlcNAc(b1-3)Gal(b1-4)Glc
# Outline: as §1
# [12] = biological target: Fuc(a1-2)Gal(b1-3)GlcNAc(b1-3)GalNAc
# Outline: as §1
# [13] = biological target: Fuc(a1-2)Gal(b1-3)GlcNAc(b1-3)[Fuc(a1-2)Gal(b1-3)GlcNAc(b1-6)]GalNAc
# Outline: as §1
# [14] = biological target: Fuc(a1-2)Gal(b1-3)GlcNAc(b1-3)[Gal(b1-4)GlcNAc(b1-6)]Gal(b1-4)Glc
# Outline: as §1
# [15] = biological target: Fuc(a1-2)Gal(b1-3)GlcNAc(b1-3)[Neu5Ac(a2-6)Gal(b1-4)GlcNAc(b1-6)]Gal(b1-4)Glc
# Outline: as §1
# [16] = biological target: Fuc(a1-2)Gal(b1-3)GlcNAc6S
# Outline: as §1
# [17] = biological target: Fuc(a1-2)Gal(b1-3)[Fuc(a1-4)]GlcNAc
# Outline: as §1
# [18] = biological target: Fuc(a1-2)Gal(b1-3)[Fuc(a1-4)]GlcNAc(b1-2)Man(a1-3)[Fuc(a1-2)Gal(b1-3)[Fuc(a1-4)]GlcNAc(b1-2)Man(a1-3)]Man(b1-4)GlcNAc(b1-4)GlcNAc
# Outline: as §1
# [19] = biological target: Fuc(a1-2)Gal(b1-3)[Fuc(a1-4)]GlcNAc(b1-2)Man(a1-3)[Fuc(a1-2)Gal(b1-3)[Fuc(a1-4)]GlcNAc(b1-2)Man(a1-6)]Man(b1-4)GlcNAc(b1-4)[Fuc(a1-6)]GlcNAc(b1-4)[Fuc(a1-6)]GlcNAc
# Outline: as §1
# [20] = biological target: Fuc(a1-2)Gal(b1-3)[Fuc(a1-4)]GlcNAc(b1-3)[Fuc(a1-3)[Gal(b1-4)]GlcNAc(b1-6)]Gal(b1-4)Glc
# Outline: as §1
# [21] = biological target: Fuc(a1-2)Gal(b1-3)[Fuc(a1-4)]GlcNAc(b1-3)[Gal(b1-4)GlcNAc(b1-6)]Gal(b1-4)Glc
# Outline: as §1
# [22] = biological target: Fuc(a1-2)Gal(b1-4)Fuc(a1-3)]GlcNAc(b1-2)Man(a1-3)[Fuc(a1-2)Gal(b1-4)[Fuc(a1-3)]GlcNAc(b1-2)Man(a1-6)]Man(b1-4)GlcNAc(b1-4)GlcNAc
# Outline: as §1
# [23] = biological target: Fuc(a1-2)Gal(b1-4)Glc
# Outline: as §1
# [24] = biological target: Fuc(a1-2)Gal(b1-4)Glc6S
# Outline: as §1
# [25] = biological target: Fuc(a1-2)Gal(b1-4)GlcNAc
# Outline: as §1
# [26] = biological target: Fuc(a1-2)Gal(b1-4)GlcNAc(b1-2)Man
# Outline: as §1
# [27] = biological target: Fuc(a1-2)Gal(b1-4)GlcNAc(b1-2)Man(a1-3)[Fuc(a1-2)Gal(b1-4)GlcNAc(b1-2)Man(a1-6)]Man(b1-4)GlcNAc(b1-4)GlcNAc
# Outline: as §1
# [28] = biological target: Fuc(a1-2)Gal(b1-4)GlcNAc(b1-2)Man(a1-3)[Fuc(a1-2)Gal(b1-4)GlcNAc(b1-2)Man(a1-6)]Man(b1-4)GlcNAc(b1-4)[Fuc(a1-6)]GlcNAc
# Outline: as §1
# [29] = biological target: Fuc(a1-2)Gal(b1-4)GlcNAc(b1-2)[Fuc(a1-2)Gal(b1-4)GlcNAc(b1-4)]Man(a1-3)[Fuc(a1-2)Gal(b1-4)GlcNAc(b1-2)Man(a1-6)]Man(b1-4)GlcNAc(b1-4)GlcNAc
# Outline: as §1
# [30] = biological target: Fuc(a1-2)Gal(b1-4)GlcNAc(b1-3)Gal(b1-4)GlcNAc
# Outline: as §1
# [31] = biological target: Fuc(a1-2)Gal(b1-4)GlcNAc(b1-3)Gal(b1-4)GlcNAc(b1-2)Man(a1-3)[Fuc(a1-2)Gal(b1-4)GlcNAc(b1-3)Gal(b1-4)GlcNAc(b1-2)Man(a1-6)]Man(b1-4)GlcNAc(b1-4)GlcNAc
# Outline: as §1
# [32] = biological target: Fuc(a1-2)Gal(b1-4)GlcNAc(b1-3)Gal(b1-4)GlcNAc(b1-3)Gal(b1-4)GlcNAc
# Outline: as §1
# [33] = biological target: Fuc(a1-2)Gal(b1-4)GlcNAc(b1-3)GalNAc
# Outline: as §1
# [34] = biological target: Fuc(a1-2)Gal(b1-4)GlcNAc(b1-3)[Fuc(a1-2)Gal(b1-4)GlcNAc(b1-6)]GalNAc
# Outline: as §1
# [35] = biological target: Fuc(a1-2)Gal(b1-4)GlcNAc(b1-3)[Fuc(a1-3)[Gal(b1-4)]GlcNAc(b1-6)]Gal(b1-4)Glc
# Outline: as §1
# [36] = biological target: Fuc(a1-2)Gal(b1-4)GlcNAc(b1-6)GalNAc
# Outline: as §1
# [37] = biological target: Fuc(a1-2)Gal(b1-4)GlcNAc6S
# Outline: as §1
# [38] = biological target: Fuc(a1-2)Gal(b1-4)[Fuc(a1-3)]GlcNAc
# Outline: as §1
# [39] = biological target: Fuc(a1-2)Gal(b1-4)[Fuc(a1-3)]GlcNAc(b1-2)Man(a1-3)[Fuc(a1-2)Gal(b1-4)[Fuc(a1-3)]GlcNAc(b1-2)Man(a1-6)]Man(b1-4)GlcNAc(b1-4)[Fuc(a1-6)]GlcNAc
# Outline: as §1
# [40] = biological target: Fuc(a1-2)Gal(b1-4)[Fuc(a1-3)]GlcNAc(b1-2)[Fuc(a1-2)Gal(b1-4)[Fuc(a1-3)]GlcNAc(b1-4)]Man(a1-3)[Fuc(a1-2)Gal(b1-4)[Fuc(a1-3)]GlcNAc(b1-2)Man(a1-6)]Man(b1-4)GlcNAc(b1-4)GlcNAc
# Outline: as §1
# [41] = biological target: Fuc(a1-2)Gal(b1-4)[Fuc(a1-3)]GlcNAc(b1-3)Gal(b1-4)[Fuc(a1-3)]GlcNAc
# Outline: as §1
# [42] = biological target: Fuc(a1-2)Gal(b1-4)[Fuc(a1-3)]GlcNAc(b1-3)Gal(b1-4)[Fuc(a1-3)]GlcNAc(b1-3)Gal(b1-4)[Fuc(a1-3)]GlcNAc
# Outline: as §1
# [43] = biological target: Fuc(a1-2)Gal(b1-4)[Fuc(a1-3)]GlcNAc(b1-3)GalNAc
# Outline: as §1
# [44] = biological target: Fuc(a1-2)Gal(b1-4)[Fuc(a1-3)]GlcNAc(b1-3)[Neu5Ac(a2-6)Gal(b1-4)GlcNAc(b1-6)]Gal(b1-4)Glc
# Outline: as §1
# [45] = biological target: Fuc(a1-2)Gal3S(b1-4)GlcNAc
# Outline: as §1
binder,measurement,setting,value
B1,glycan array binding signal (z-score),[1],-0.172
same,glycan array binding signal (z-score),[2],-0.223
same,glycan array binding signal (z-score),[3],0.146
same,glycan array binding signal (z-score),[4],-0.211
same,glycan array binding signal (z-score),[5],-0.239
same,glycan array binding signal (z-score),[6],-0.152
same,glycan array binding signal (z-score),[7],-0.267
same,glycan array binding signal (z-score),[8],-0.228
same,glycan array binding signal (z-score),[9],0.333
same,glycan array binding signal (z-score),[10],-0.261
same,glycan array binding signal (z-score),[11],-0.242
same,glycan array binding signal (z-score),[12],-0.209
same,glycan array binding signal (z-score),[13],-0.043
same,glycan array binding signal (z-score),[14],-0.218
same,glycan array binding signal (z-score),[15],-0.157
same,glycan array binding signal (z-score),[16],-0.262
same,glycan array binding signal (z-score),[17],-0.187
same,glycan array binding signal (z-score),[18],1.31
same,glycan array binding signal (z-score),[19],-0.059
same,glycan array binding signal (z-score),[20],-0.28
same,glycan array binding signal (z-score),[21],-0.081
same,glycan array binding signal (z-score),[22],1.94
same,glycan array binding signal (z-score),[23],-0.172
same,glycan array binding signal (z-score),[24],-0.188
same,glycan array binding signal (z-score),[25],-0.164
same,glycan array binding signal (z-score),[26],-0.149
same,glycan array binding signal (z-score),[27],0.247
same,glycan array binding signal (z-score),[28],0.003
same,glycan array binding signal (z-score),[29],1.3
same,glycan array binding signal (z-score),[30],-0.271
same,glycan array binding signal (z-score),[31],0.487
same,glycan array binding signal (z-score),[32],-0.239
same,glycan array binding signal (z-score),[33],-0.163
same,glycan array binding signal (z-score),[34],-0.236
same,glycan array binding signal (z-score),[35],-0.245
same,glycan array binding signal (z-score),[36],-0.051
same,glycan array binding signal (z-score),[37],-0.163
same,glycan array binding signal (z-score),[38],-0.23
same,glycan array binding signal (z-score),[39],2
same,glycan array binding signal (z-score),[40],2.32
same,glycan array binding signal (z-score),[41],-0.271
same,glycan array binding signal (z-score),[42],-0.228
same,glycan array binding signal (z-score),[43],-0.203
same,glycan array binding signal (z-score),[44],-0.275
same,glycan array binding signal (z-score),[45],-0.171
